The values that follow come from publication PMC7613676.

Results are given in words; binding and its absence hold for the method and conditions named. In cells and extracts the contact can be indirect. Some results given as binding are weak or reduced against the parent protein; the word gives no strength. Tags and fused reporters may be left off the sequences shown.

For test [1], the target named is T1, HA-tagged mouse RNF12 wild type (HA-mRNF12 WT, 1-600) (mouse) (UniProt Q9WTV7).
T1 sequence: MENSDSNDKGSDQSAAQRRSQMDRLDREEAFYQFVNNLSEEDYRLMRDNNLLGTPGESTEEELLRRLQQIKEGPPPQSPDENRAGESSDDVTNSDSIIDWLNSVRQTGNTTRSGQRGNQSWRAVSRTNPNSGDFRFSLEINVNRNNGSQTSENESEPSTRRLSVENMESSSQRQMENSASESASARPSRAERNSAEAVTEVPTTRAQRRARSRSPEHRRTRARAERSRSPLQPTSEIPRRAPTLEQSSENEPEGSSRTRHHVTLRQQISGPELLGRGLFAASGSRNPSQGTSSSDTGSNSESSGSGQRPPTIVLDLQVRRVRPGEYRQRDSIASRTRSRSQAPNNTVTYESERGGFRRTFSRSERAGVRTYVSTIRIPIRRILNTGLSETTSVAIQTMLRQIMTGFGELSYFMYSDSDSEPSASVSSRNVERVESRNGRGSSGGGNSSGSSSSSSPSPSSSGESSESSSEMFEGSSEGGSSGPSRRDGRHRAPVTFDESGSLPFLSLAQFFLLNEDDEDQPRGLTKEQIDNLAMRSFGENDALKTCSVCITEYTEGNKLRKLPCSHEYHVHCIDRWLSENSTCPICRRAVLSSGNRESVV
In words: co-IP; FLAG (M2 agarose) immunoprecipitation from lysate of Rlim-/y mESCs co-expressing FLAG-mRNF12 WT and HA-mRNF12 WT or deletion mutants; overnight at 4 °C; washes with 500 mM NaCl; immunoblot for FLAG and HA. In general terms: Immunoblotting shows a protein as a band on a membrane.

Test [2] deals with T1, HA-tagged mouse RNF12 wild type (HA-mRNF12 WT, 1-600) (mouse). In words: co-IP; HA immunoprecipitation from 1 mg lysate of transfected Rlim-/y mESCs, overnight at 4 °C; beads washed with lysis buffer containing 500 mM NaCl; immunoblot for FLAG and HA.
Test [3] addresses T2, N-terminally HA-tagged mRNF12 expressed from the endogenous locus (HA-RNF12 KI) (mouse) (UniProt Q9WTV7).
T2 sequence: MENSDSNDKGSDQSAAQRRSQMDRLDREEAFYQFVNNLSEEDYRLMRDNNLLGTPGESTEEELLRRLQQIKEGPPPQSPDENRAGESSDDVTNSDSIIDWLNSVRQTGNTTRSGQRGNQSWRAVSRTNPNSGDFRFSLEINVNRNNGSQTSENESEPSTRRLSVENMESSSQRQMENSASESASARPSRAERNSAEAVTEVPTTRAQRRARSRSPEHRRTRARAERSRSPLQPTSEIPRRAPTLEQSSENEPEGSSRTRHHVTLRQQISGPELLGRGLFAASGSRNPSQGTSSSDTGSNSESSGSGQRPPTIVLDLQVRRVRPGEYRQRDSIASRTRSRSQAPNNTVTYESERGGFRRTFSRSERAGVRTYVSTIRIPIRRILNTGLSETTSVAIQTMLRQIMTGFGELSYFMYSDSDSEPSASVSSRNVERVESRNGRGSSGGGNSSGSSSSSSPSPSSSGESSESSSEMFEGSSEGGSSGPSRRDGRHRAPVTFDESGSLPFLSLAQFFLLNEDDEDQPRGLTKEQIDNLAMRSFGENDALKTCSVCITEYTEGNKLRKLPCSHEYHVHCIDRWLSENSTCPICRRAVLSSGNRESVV
In words: co-IP; HA immunoprecipitation from lysate of HA-RNF12 KI mESCs (both proteins at endogenous level), IgG as negative control; overnight at 4 °C; washes with 500 mM NaCl; immunoblot for USP26 and HA.

B1: HA-tagged mouse RNF12 wild type (HA-mRNF12 WT, 1-600) (enzyme, UniProt Q9WTV7 1-600)
chain: MENSDSNDKGSDQSAAQRRSQMDRLDREEAFYQFVNNLSEEDYRLMRDNNLLGTPGESTEEELLRRLQQIKEGPPPQSPDENRAGESSDDVTNSDSIIDWLNSVRQTGNTTRSGQRGNQSWRAVSRTNPNSGDFRFSLEINVNRNNGSQTSENESEPSTRRLSVENMESSSQRQMENSASESASARPSRAERNSAEAVTEVPTTRAQRRARSRSPEHRRTRARAERSRSPLQPTSEIPRRAPTLEQSSENEPEGSSRTRHHVTLRQQISGPELLGRGLFAASGSRNPSQGTSSSDTGSNSESSGSGQRPPTIVLDLQVRRVRPGEYRQRDSIASRTRSRSQAPNNTVTYESERGGFRRTFSRSERAGVRTYVSTIRIPIRRILNTGLSETTSVAIQTMLRQIMTGFGELSYFMYSDSDSEPSASVSSRNVERVESRNGRGSSGGGNSSGSSSSSSPSPSSSGESSESSSEMFEGSSEGGSSGPSRRDGRHRAPVTFDESGSLPFLSLAQFFLLNEDDEDQPRGLTKEQIDNLAMRSFGENDALKTCSVCITEYTEGNKLRKLPCSHEYHVHCIDRWLSENSTCPICRRAVLSSGNRESVV
Consider B1, for which the binding result in test [1] is given as “binds”.

B2: FLAG-tagged human USP29 (FLAG-hUSP29) (enzyme, UniProt Q9HBJ7 1-922)
chain: MISLKVCGFIQIWSQKTGMTKLKEALIETVQRQKEIKLVVTFKSGKFIRIFQLSNNIRSVVLRHCKKRQSHLRLTLKNNVFLFIDKLSYRDAKQLNMFLDIIHQNKSQQPMKSDDDWSVFESRNMLKEIDKTSFYSICNKPSYQKMPLFMSKSPTHVKKGILENQGGKGQNTLSSDVQTNEDILKEDNPVPNKKYKTDSLKYIQSNRKNPSSLEDLEKDRDLKLGPSFNTNCNGNPNLDETVLATQTLNAKNGLTSPLEPEHSQGDPRCNKAQVPLDSHSQQLQQGFPNLGNTCYMNAVLQSLFAIPSFADDLLTQGVPWEYIPFEALIMTLTQLLALKDFCSTKIKRELLGNVKKVISAVAEIFSGNMQNDAHEFLGQCLDQLKEDMEKLNATLNTGKECGDENSSPQMHVGSAATKVFVCPVVANFEFELQLSLICKACGHAVLKVEPNNYLSINLHQETKPLPLSIQNSLDLFFKEEELEYNCQMCKQKSCVARHTFSRLSRVLIIHLKRYSFNNAWLLVKNNEQVYIPKSLSLSSYCNESTKPPLPLSSSAPVGKCEVLEVSQEMISEINSPLTPSMKLTSESSDSLVLPVEPDKNADLQRFQRDCGDASQEQHQRDLENGSALESELVHFRDRAIGEKELPVADSLMDQGDISLPVMYEDGGKLISSPDTRLVEVHLQEVPQHPELQKYEKTNTFVEFNFDSVTESTNGFYDCKENRIPEGSQGMAEQLQQCIEESIIDEFLQQAPPPGVRKLDAQEHTEETLNQSTELRLQKADLNHLGALGSDNPGNKNILDAENTRGEAKELTRNVKMGDPLQAYRLISVVSHIGSSPNSGHYISDVYDFQKQAWFTYNDLCVSEISETKMQEARLHSGYIFFYMHNGIFEELLRKAENSRLPSTQAGVIPQGEYEGDSLYRPA
Consider B2, for which, in test [2], the binding result is “binds”.

B3: endogenous mouse USP26 (enzyme, UniProt Q99MX1 1-835)
chain: MEPILINAQVQMWSAKAGMSKSRNALIETCVGKREVKLILYFSTGKIKTLQLHDNIKSVVLQTYGEDQNYLHLTFKNNDFLFVEKLTTTDARRLKRFLDKTSQGSIRPARSDERCGEPSTSAQELNGSGSSCETNSECFESPKESEMCMFRELSLLPSSSTFLHNVGLLENQFIKRKRFFSDLAKNEKQSNLKDSIRDFEANLVVCISNEKGKERNVREVDISKPGFGFPFETNYPEDSGVDVRDLNDLITKLFSPVLLETHCIENGLEWHEYMKTYLLYPEKLWQGLPNVGNTCYINVVLQSLCSIPLFINDLFNQGFPWIKAPKDDFNMLLMQLLVLKDIYNARFRQKLLIGITKALPIFGEIFAVDRQNDAHEFLSLCLVQLKETFQRVTMMWQSENDSGDFYLLKDIFADYATINKMPVCPVTNNFEFELLSSIFCKACGLTLFKGEPSRYLSINIPQGGKDMSIQSTLDLFFSAEELEHRCEKCLYNKSVSFHRFGRLPRVIIVHLKRYHFNESWVMKKDERPILVSKYLRLSCHCSKSTKPPPPLRPGEHVKNLDLLKPLEVLGSEILKLPFNSVRTSRSKGFETINITSNRESEAQSGKRVSEVLSGKVQQENSGKGDTAHIVGSELTKETEKLKKHEEEHRPSDLDSGSIREAQKYQQAEKCNEGRSDKQISLEALTQSRPKPISQEQTENLGKTTLSHTQDSSQSSQSSSDSSKSSRCSDDLDKKAKPTRKVDPTKLNKKEDNVYRLVNIINHIGNSPNGGHYINDAFDFKRQSWFTYSDLHVTRTQEDFVYRGRSSTGYVFFYMHNDIFEELLAKETQSTSTSKG
Regarding B3, in test [3], the binding result is listed as “binds”.
